Laboratory results published in US20080305997A1.

Biological target: CD4 on mouse CD4+ T cells (mouse), P06332
Experiment: cell-based or functional assay

CD4 on mouse CD4+ T cells (mouse), P06332, sequence (P06332 27-457): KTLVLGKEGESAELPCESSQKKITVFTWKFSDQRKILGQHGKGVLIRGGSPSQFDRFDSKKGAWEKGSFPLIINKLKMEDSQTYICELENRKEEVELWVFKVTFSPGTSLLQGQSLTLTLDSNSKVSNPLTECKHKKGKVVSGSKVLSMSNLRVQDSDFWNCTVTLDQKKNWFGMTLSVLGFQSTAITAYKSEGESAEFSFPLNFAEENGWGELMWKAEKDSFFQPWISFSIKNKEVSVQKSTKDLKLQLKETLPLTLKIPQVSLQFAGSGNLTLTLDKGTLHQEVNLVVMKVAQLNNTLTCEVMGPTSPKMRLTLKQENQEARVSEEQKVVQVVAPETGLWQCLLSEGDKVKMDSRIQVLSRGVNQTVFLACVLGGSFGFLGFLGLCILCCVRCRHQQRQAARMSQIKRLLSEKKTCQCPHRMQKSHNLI

B1: Salp15 (Ixodes scapularis salivary protein 15), recombinant 6x histidine-tagged, Q95WZ4 23-135 (ligand)
chain: ESGPTKADASTADKDTKKNNVQLRFPNYISNHQKLALKLLKICKDSKSSHNSLSSRSSDVINDKYVDFKNCTFLCKHGNDVNVTLNLPEDTPCGPNGQTCAEKNKCVGHIPGC
- immunosuppressive activity of Salp15 in T cells isolated from CD4-negative mice stimulated with anti-CD3/CD28: 33%
- immunosuppressive activity of Salp15 in control T cells stimulated with anti-CD3/CD28: 85%
